Laboratory results from PubChem BioAssay AID686979 (National Center for Advancing Translational Sciences (NCATS), 2013).
Out of some 420,000 compounds screened, about 50,000 (12%) were called active. Inconclusive results, whose numbers are uncertain, are shown with a selection of clear calls. Calls follow the shape of the dose curve; as a rule, active = well fitted inhibition curve with a large enough effect; inconclusive = small, poorly fitted or top-dose-only effect; inactive = flat fitted curve, though single readings scatter. Potencies of inconclusive entries are left out as doubtful fits.

Assay: qHTS for Inhibitors of human tyrosyl-DNA phosphodiesterase 1 (TDP1): qHTS in cells in presence of CPT; also: nearly all actives have a fitted effect of over 55% in size
Details: chicken DT40 Tdp1-/-;hTDP1 cells + 20 nM CPT, ATP luminescence, 48 h; activity change, negative = growth inhibition: at 46.2 µM (top of the series)
Outline: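 Chicken DT40 Tdp1-/- cells complemented with human TDP1, 400 cells/well, exposed to compounds plus 20 nM camptothecin for at least 48 h at 37 C; viability read as ATP content by CellTiter-Glo luminescence.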
% is scaled to controls: 0 for no effect and ±100 for the full control effect; potency is read from the fitted curve at half-maximal effect; tags tell the direction and shape of the fitted curve.

Row | SMILES | Potency | activity change, negative = growth inhibition
1 | CCN1/C(=N\N)c2cccc3cccc1c23 | inconclusive [inhibitor, single point] | 
2 | COc1ccc(OC)c(CNC(=O)C2CCN(S(=O)(=O)c3ccc4[nH]c(=O)oc4c3)CC2)c1 |  | inactive: 0.141%
3 | Cc1ccc(Nc2nc(N/N=C\c3ccc4c(c3)OCO4)nc(N3CCOCC3)n2)cc1 | active: 8.2 µM | 
4 | CCOC(=O)N1CCN(C(=O)c2ccc(Cl)nc2)CC1 |  | inactive: 4.21%
5 | COCCn1c(=O)c(CCc2ccccc2)nc2cnc(Nc3ccccc3)nc21 |  | inactive: 4.97%
6 | O=S(=O)(NCC(c1ccco1)N1CCc2ccccc2C1)c1ccc(Br)cc1 (stereo unspecified) | inconclusive [inhibitor, single point] | 
7 | CCOC(=O)c1ccccc1NC(=O)C1CCCO1 (stereo unspecified) |  | inactive: -5.37%
8 | Cc1ccccc1Nc1nc(N)nc(COC(=O)[C@@H](NC(=O)c2ccccc2Cl)C(C)C)n1 | inconclusive [inhibitor, single point] | 
9 | COc1cc(CCC(=O)OCC(=O)Nc2ccc3c(c2)OCO3)cc(OC)c1OC |  | inactive: 4.13%
10 | O=C(N/N=C/c1ccco1)c1cc(-c2ccc3ccccc3c2)n[nH]1 | active: 13 µM | 
11 | CN1CCN(S(=O)(=O)c2cccc(S(=O)(=O)c3ccc(Cl)c(Cl)c3)c2)CC1 | inconclusive [inhibitor, single point] | 
12 | Oc1ccc(Cl)cc1CNCc1ccc(F)c(F)c1 | inconclusive [inhibitor, partial curve] | 
13 | Cc1ccc(CNC(=O)c2c[nH]n3c(=O)c(Cc4ccc(F)cc4Cl)c(C)nc23)cc1 | inconclusive [inhibitor, partial curve, poor fit] | 
14 | CN(C)S(=O)(=O)c1cc(NC(=O)CN2CCOCC2)ccc1Cl | inconclusive [inhibitor, single point] | 
15 | COc1ccc(C2CC(=O)Oc3c(C(CCN4CCN(c5ccccc5)CC4)c4ccc(N(C)C)cc4)c(OC)cc(OC)c32)cc1 (stereo unspecified) |  | inactive: -33.8%
16 | O=C(O)/C=C/C(=O)NCCC(c1ccccc1)c1ccccc1 | inconclusive [inhibitor, single point] | 
17 | C[C@H](CO)N1C[C@H](C)[C@@H](CN(C)Cc2ccc(Cl)c(Cl)c2)Oc2c(NC(=O)Cc3ccccc3)cccc2C1=O | inconclusive [inhibitor, single point] | 
18 | Cc1c(C)n(Cc2ccccc2)c2ncnc(NN)c12 | inconclusive [inhibitor, single point] | 
19 | COc1ccc(NC(=O)CCCn2c(=O)c3sccc3n(Cc3ccccc3C)c2=O)cc1 | inconclusive [inhibitor, single point] | 
20 | Cn1c(C(=O)N2CCC(C(=O)N3CCN(c4ccccc4)CC3)CC2)cc2sccc21 | active: 13 µM | 
21 | CCNC(=S)N1CCC(n2cnc3ccccc32)CC1 |  | inactive: -0.185%
22 | CCNC(=O)c1cnn(-c2ccccc2)c1-c1ccccc1 |  | inactive: -25.6%
23 | COc1ccc(CN2C(=O)Cc3c2nc(N)c2c(N)nc(N4CCOCC4)c(C#N)c32)cc1 | active: 14.6 µM | 
24 | NC(=O)c1cc2ccccc2o/c1=N\NC(=O)c1ccc(F)cc1 | active: 20.6 µM | 

Row | SMILES | Potency | activity change, negative = growth inhibition
25 | CCN1CCN(c2ccc(NC(=O)COc3ccc(Cl)cc3C)cc2)CC1 | active: 18.4 µM | 
26 | CC(=O)c1ccc(-c2ccc(C(=O)N3CCN(c4ccc(F)cc4)CC3)o2)cc1 | inconclusive [inhibitor, single point] | 
27 | CCC(C)(C)C1CCc2[nH]nc(C(=O)NC(C)C)c2C1 (stereo unspecified) | inconclusive [inhibitor, single point] | 
28 | CCN1CCN(c2cc(C)c3cc(NC(=S)N(CC)CC)ccc3n2)CC1 | inconclusive [inhibitor, single point] | 
29 | Cc1cc(C(F)(F)F)n2nc(-c3cnn(C)c3C(F)(F)F)c(Cl)c2n1 |  | inactive: -18.6%
30 | CC12CCC(=O)N1C(C(=O)Nc1ccc(Cl)c(S(=O)(=O)N3CCCCC3)c1)CS2 (stereo unspecified) | inconclusive [inhibitor, single point] | 
31 | C=CC[C@@H](Cc1ccc(F)cc1)C(=O)OC[C@H]1CCCN1C(=O)[C@@H](CC=C)CC(=O)N(CCO)Cc1ccccc1 | active: 14.6 µM | 
32 | C=CCNc1cc(=O)n(Cc2ccccc2)c(=O)[nH]1 | inconclusive [inhibitor, single point] | 
33 | CCCCC(=O)Oc1ccccc1C1SCc2cc(C)c(C)cc2CS1 | inconclusive [inhibitor, single point] | 
34 | COc1cccc(NC(=O)N(CCCN2CCOCC2)C(C)c2cc3cccc(OC)c3o2)c1 (stereo unspecified) |  | inactive: -25.4%
35 | C[C@H](NC(=O)c1[nH]cnc1C(=O)Nc1ccccc1)c1ccccc1 | inconclusive [inhibitor, single point] | 
36 | Cc1nc(NC(C)C)c2oc3ccccc3c2n1 | inconclusive [inhibitor, single point] | 
37 | O=C(Nc1ccc(N2CCOCC2)cc1)C1CCCN(S(=O)(=O)c2ccccc2)C1 (stereo unspecified) | inconclusive [inhibitor, single point] | 
38 | CCN1CCN(C(=O)c2sc3ncnc(N4CCc5ccccc5C4)c3c2C)CC1 | inconclusive [inhibitor, single point] | 
39 | CCCCOc1ccc(C(=O)NCC(=O)NCC2CCCO2)cc1 (stereo unspecified) | inconclusive [inhibitor, partial curve] | 
40 | Cc1noc2ncnc(NCc3ccc(Cl)cc3)c12 | active: 13 µM | 
41 | C#CCOCCOCCOCCNc1nc(N2CCN(C(=O)[C@H]([C@@H](C)CC)n3cc([C@@H](N)CC(C)C)nn3)CC2)nc(N2CCN(C(=O)[C@H]([C@@H](C)CC)n3cc([C@@H](N)CC(C)C)nn3)CC2)n1 | active: 14.6 µM | 
42 | Cc1cc(F)ccc1S(=O)(=O)N1CCCCC1CCNC(=O)C(=O)NCc1ccccn1 (stereo unspecified) | inconclusive [inhibitor, partial curve] | 
43 | CCCC(=O)Nc1nc2ccc3nc(C)sc3c2s1 |  | inactive: -23.6%
44 | CCOC(=O)c1ccc(-c2ccc(/C=C(\C#N)C(=O)NCc3cccs3)o2)cc1 | active: 23.1 µM | 
45 | Cc1cccc(NC(=O)NCCc2ccc(Cl)cc2)c1 |  | inactive: 3.46%
46 | Cc1ccc(C(=O)/C=C/Nc2cccc(O)c2)cc1 | inconclusive [inhibitor, single point] | 
47 | COc1cc(/C=C2\SC(N)=NC2=O)ccc1OCC(=O)Nc1ccccc1C | inconclusive [inhibitor, single point] | 
48 | Cc1ccc2nc(-c3ccc(Br)cc3)cn2c1 |  | inactive: 1.32%

Row | SMILES | Potency | activity change, negative = growth inhibition
49 | CC(=O)Nc1cc(-c2cccc(C(=O)NCCN(C)C)c2)cn2c(-c3ccc(C(C)=O)cc3)cnc12 | inconclusive [inhibitor, single point] | 
50 | Cc1nc2ccccc2nc1Nc1cccc(Cl)c1 | inconclusive [inhibitor, single point] | 
51 | COc1ccc(CNC(=O)c2ccc(N3CCC4(CC3)CC(c3ccc(Cl)cc3)=NO4)c(NC(=O)Cc3ccc(F)cc3)c2)cc1 |  | inactive: 1.64%
52 | O=C(N/N=C/c1ccc(OC(=O)c2ccccc2Cl)cc1)c1cc(O)cc(O)c1 | inconclusive [inhibitor, single point] | 
53 | O=C(NCC1CC1)C1Cc2c(-c3ccc4c(c3)OCO4)ccnc2O1 (stereo unspecified) | inconclusive [inhibitor, single point] | 
54 | Oc1ccccc1-c1nnc(COc2ccccc2)o1 | inconclusive [inhibitor, single point] | 
55 | CC(=O)c1cccc(NC(=O)COc2nsnc2N2CCOCC2)c1 | inconclusive [inhibitor, single point] | 
56 | O=C1/C(=C\c2cccs2)N=C(c2cccs2)N1Nc1ccccc1 |  | inactive: -4.36%
57 | O=C(Nc1cccc(NC(=O)c2cccs2)c1)c1ccc2c(c1)OCCO2 | inconclusive [inhibitor, single point] | 
58 | COc1ccc(C)cc1NC(=O)CNC(c1ccccc1)c1ccc(C)cc1 (stereo unspecified) | active: 3.26 µM | 
59 | CN(C)CCN(C)c1cc2c(c3c1ccn3C)C1CCC2O1 (stereo unspecified) | inconclusive [inhibitor, single point] | 
60 | CC(C)c1ccc(C2=NC(c3ccncc3)=Nc3ccc(F)cc3N2)cc1 | active: 23.1 µM | 
61 | COCCCNC(=O)c1cccc2c(-c3ccnn3C)coc12 | inconclusive [inhibitor, partial curve] | 
62 | Cc1onc(-c2ccccc2)c1C(=O)OCC(=O)c1ccc[nH]1 |  | inconclusive: -30.4% [inhibitor]
63 | Cc1ccc(C)c(NC(=O)c2cc(=O)c3ccccc3o2)c1 |  | inactive: 0.724%
64 | COc1cccc(Nc2ccc(C(=O)O)cc2[N+](=O)[O-])c1 |  | inactive: -10.5%
65 | O=C(Nc1nc2c(s1)CCCC2)c1ccccc1F | inconclusive [inhibitor, single point] | 
66 | COC/C=C/C1=CC2=CC(=O)C(C)(OC(=O)C3CCCC3)C(=O)C2=CO1 (stereo unspecified) | inconclusive [inhibitor, single point] | 
67 | Clc1ccc2nc(-c3ccco3)c(Cc3ccsc3)n2c1 | inconclusive [inhibitor, single point] | 
68 | CCCC(C)C(=O)Nc1nnc(CCc2ccccc2)s1 (stereo unspecified) | inconclusive [inhibitor, single point] | 
69 | CN1CCN(c2ncc3nc(-c4ccc(F)cc4)c(=O)n(Cc4cccs4)c3n2)CC1 | inconclusive [inhibitor, single point] | 
70 | Cn1c(=O)c2c(nc(NCc3ccccc3)n2C)n(C)c1=O |  | inconclusive: -32.3% [inhibitor]
71 | CC(=O)c1ccc(NS(=O)(=O)c2ccc(CC(C)C)cc2)cc1 | inconclusive [inhibitor, partial curve] | 
